Experimental data from the supplement of paper PMC10369915.
This is one part of the list. No stated cut-off is given here; in the data, active = 3.2 or more and inactive = the rest. Only a few entries rise above the background.

Target: SHP2 C-SH2 domain E139D
Assay: enrichment score (SH2-bound / input frequency) (ratio); bacterial display of known human phosphotyrosine sites (pTyr-Var adds point mutants) read by sequencing; higher = stronger binding; tyrosines were phosphorylated by kinases first
Conditions: peptide library: pTyr-Var
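Further: displayed peptides selected on beads carrying the immobilized SH2 domain, with library peptides lacking any tyrosine serving as negative controls.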

Row | Binder | enrichment score
1 | DGDTRYSTFSE [TKTL1_Y318] | inactive: 0.626
2 | LITLVYGCSRQ [TMPRSS6_Y290_S288L] | inactive: 1.36
3 | CYCSWYRGWAP [TIMP3_Y195_G190C] | active: 3.88
4 | KRLFAYKMLMA [TMC2_Y209_Q205R_YF] | active: 3.94
5 | VRSNHYDPEED [TJP1_Y1346] | inactive: 0.42
6 | VDLIVYLRTNP [TK2_Y181] | inactive: 0.724
7 | KGFRGYSFDDI [TMEM230_Y110_YF] | inactive: 0.733
8 | YQCKHYACIRQ [TIMP3_Y182_S179C] | active: 4.38
9 | DQLVKYGVNPG [TMPO_Y127] | inactive: 0.818
10 | TVEDHYYEGGI [TKT_Y563] | inactive: 0.707

Target: SHP2 C-SH2 domain wild-type
Assay: as above
Conditions: peptide library: pTyr-Var

Row | Binder | enrichment score
11 | DGDTRYSTFSE [TKTL1_Y318] | inactive: 0.697
12 | LITLVYGCSRQ [TMPRSS6_Y290_S288L] | inactive: 1.08
13 | CYCSWYRGWAP [TIMP3_Y195_G190C] | active: 3.6
14 | KRLFAYKMLMA [TMC2_Y209_Q205R_YF] | active: 3.28
15 | VRSNHYDPEED [TJP1_Y1346] | inactive: 0.454
16 | VDLIVYLRTNP [TK2_Y181] | inactive: 0.781
17 | KGFRGYSFDDI [TMEM230_Y110_YF] | inactive: 0.582
18 | YQCKHYACIRQ [TIMP3_Y182_S179C] | active: 4.09
19 | DQLVKYGVNPG [TMPO_Y127] | inactive: 0.774
20 | TVEDHYYEGGI [TKT_Y563] | inactive: 0.903

Target: SHP2 N-SH2 domain L43F
Assay: as above
Conditions: peptide library: pTyr-Var

Row | Binder | enrichment score
21 | DGDTRYSTFSE [TKTL1_Y318] | inactive: 0.642
22 | LITLVYGCSRQ [TMPRSS6_Y290_S288L] | inactive: 1.08
23 | CYCSWYRGWAP [TIMP3_Y195_G190C] | active: 3.51
24 | KRLFAYKMLMA [TMC2_Y209_Q205R_YF] | active: 3.26
25 | VRSNHYDPEED [TJP1_Y1346] | inactive: 0.967
26 | VDLIVYLRTNP [TK2_Y181] | inactive: 0.698
27 | KGFRGYSFDDI [TMEM230_Y110_YF] | inactive: 0.583
28 | YQCKHYACIRQ [TIMP3_Y182_S179C] | active: 3.64
29 | DQLVKYGVNPG [TMPO_Y127] | inactive: 0.737
30 | TVEDHYYEGGI [TKT_Y563] | inactive: 0.749

Target: SHP2 N-SH2 domain T42A
Assay: as above
Conditions: peptide library: pTyr-Var

Row | Binder | enrichment score
31 | DGDTRYSTFSE [TKTL1_Y318] | inactive: 0.645
32 | LITLVYGCSRQ [TMPRSS6_Y290_S288L] | inactive: 0.719
33 | CYCSWYRGWAP [TIMP3_Y195_G190C] | active: 3.27
34 | KRLFAYKMLMA [TMC2_Y209_Q205R_YF] | inactive: 3.08
35 | VRSNHYDPEED [TJP1_Y1346] | inactive: 0.302
36 | VDLIVYLRTNP [TK2_Y181] | inactive: 0.496
37 | KGFRGYSFDDI [TMEM230_Y110_YF] | inactive: 0.594
38 | YQCKHYACIRQ [TIMP3_Y182_S179C] | inactive: 2.68
39 | DQLVKYGVNPG [TMPO_Y127] | inactive: 0.784
40 | TVEDHYYEGGI [TKT_Y563] | inactive: 0.566

Target: SHP2 N-SH2 domain T52S
Assay: as above
Conditions: peptide library: pTyr-Var

Row | Binder | enrichment score
41 | DGDTRYSTFSE [TKTL1_Y318] | inactive: 0.549
42 | LITLVYGCSRQ [TMPRSS6_Y290_S288L] | inactive: 1.05
43 | CYCSWYRGWAP [TIMP3_Y195_G190C] | inactive: 3.1
44 | KRLFAYKMLMA [TMC2_Y209_Q205R_YF] | active: 3.27
45 | VRSNHYDPEED [TJP1_Y1346] | inactive: 0.433
46 | VDLIVYLRTNP [TK2_Y181] | inactive: 0.533
47 | KGFRGYSFDDI [TMEM230_Y110_YF] | inactive: 0.618
48 | YQCKHYACIRQ [TIMP3_Y182_S179C] | active: 3.54
49 | DQLVKYGVNPG [TMPO_Y127] | inactive: 0.832
50 | TVEDHYYEGGI [TKT_Y563] | inactive: 0.696

Target: SHP2 N-SH2 domain wild-type
Assay: as above
Conditions: peptide library: pTyr-Var

Row | Binder | enrichment score
51 | DGDTRYSTFSE [TKTL1_Y318] | inactive: 0.534
52 | LITLVYGCSRQ [TMPRSS6_Y290_S288L] | inactive: 1.13
53 | CYCSWYRGWAP [TIMP3_Y195_G190C] | active: 3.95
54 | KRLFAYKMLMA [TMC2_Y209_Q205R_YF] | active: 3.31
55 | VRSNHYDPEED [TJP1_Y1346] | inactive: 0.423
56 | VDLIVYLRTNP [TK2_Y181] | inactive: 0.838
57 | KGFRGYSFDDI [TMEM230_Y110_YF] | inactive: 0.808
58 | YQCKHYACIRQ [TIMP3_Y182_S179C] | active: 3.26
59 | DQLVKYGVNPG [TMPO_Y127] | inactive: 1.01
60 | TVEDHYYEGGI [TKT_Y563] | inactive: 0.557
